The whole screen tested about 150,000 compounds, of which about 540 (0.36%) showed an effect of 50% or more. The list shows a part of the results.
The molecules below were run on Plasmodium falciparum (assay: Primary screen in NF54 nanoGlo assay, in single point, at 2uM, 72h; a lower Z score goes with more inhibition). Settings: timepoint 72 hour.
Format: functional, Erythrocyte
CN(C1(C#N)CCC1)S(=O)(=O)c1cc(F)ccc1OCC1CC1 was tested, and the “% Inhibition” value was -2% and the Z score was 0.23.
For COc1ccc(CNc2nonc2-c2noc(N)n2)cc1, the “% Inhibition” value was 8% and the Z score was -0.97.
For O=C(NC1CCC2OCCOC2C1)c1ccc(Cl)s1 (stereo not drawn), the “% Inhibition” value was -4% and the Z score was 0.82.
In the case of NC(C(=O)NCC1CC2C=CC1CC2)C1CCC1 (stereo not drawn), the “% Inhibition” value is reported as 0% and the Z score is reported as 0.03.
CCNC(=O)N1CCO[C@@H](Cc2ccccc2Cl)C1 was tested, and the “% Inhibition” value was -3% and the Z score was 0.47.
In the case of Cc1cc(NC(=O)N2C[C@@H]3[C@H](C2)[C@H]2CC[C@@H]3O2)n(C2CCCCC2)n1, the “% Inhibition” value is reported as -9% and the Z score is reported as 1.6.
In the case of O=C(CN1CCCC1=O)N[C@H]1CCc2ccccc21, the “% Inhibition” value is reported as -6% and the Z score is reported as 0.71.
For O=C(C1COc2ccccc2O1)N1CCC(n2cnc3ccccc32)C1 (stereo not drawn), the “% Inhibition” value was 2% and the Z score was -0.27.
For CCOc1ccc(NC(=O)N2C[C@@H]3CCC[C@H](C2)C(=O)N3)cc1C(F)(F)F, the “% Inhibition” value was -11% and the Z score was 1.05.
For CCC(=O)Nc1ccc2c(c1)cc(C(=O)N1CCN(CC)CC1)n2Cc1cccc(F)c1, the “% Inhibition” value was -9% and the Z score was 1.1.
For O=C(CN1CCN(c2c(F)c(F)c(F)c(F)c2F)CC1)N1CCNC1=O, the “% Inhibition” value was 29% and the Z score was -3.25.
For CCN(CC)C(=O)c1ccccc1NC(=O)c1cc(C)c2c(c1)-c1ccccc1S(=O)(=O)N2C, the “% Inhibition” value was -1% and the Z score was 0.12.
In the case of CS(=O)(=O)N1CCC(C(=O)N2CCN(c3nccn4nc5c(c34)CCCC5)CC2)CC1, the “% Inhibition” value is reported as -14% and the Z score is reported as 1.82.
COC(C)(C)[C@]12CC(O)(c3ccccc3)ON1[C@H]1CCCCC1N2O (stereo partly drawn) was tested, and the “% Inhibition” value was -12% and the Z score was 1.53.
With C[C@H]1COCCN1Cc1csc(-c2ccco2)n1 the “% Inhibition” value was -2% and the Z score was 0.34.
With CCN(CC(=O)O)C(=O)C1CCCCCC1 the “% Inhibition” value was 1% and the Z score was -0.11.
C[C@@H](C(=O)N1CCCc2ccccc21)S(=O)(=O)Cc1nc(Cc2ccccc2)no1 was tested, and the “% Inhibition” value was 0% and the Z score was -0.03.
CCc1ccc(S(=O)(=O)N2CCC(n3nccn3)CC2)s1 was tested, and the “% Inhibition” value was -10% and the Z score was 1.14.
For COc1cccc(CC(=O)N2C[C@H](c3nc(-c4cccnc4)no3)[C@@H](C)C2)c1, the “% Inhibition” value was -2% and the Z score was 0.26.
In the case of O=C(c1ccc(F)c(Cl)c1)N1C[C@@H](CN2CCCCCC2)[C@@H](CO)C1, the “% Inhibition” value is reported as -7% and the Z score is reported as 1.11.
For CCc1noc(C)c1C(=O)N[C@@H](C)c1cnn(-c2ccc(OC)cc2)c1C, the “% Inhibition” value was -24% and the Z score was 2.57.
In the case of Cc1ccc(NC(=O)CN2CCC(CNC(=O)c3ccccn3)CC2)c(C)c1, the “% Inhibition” value is reported as -27% and the Z score is reported as 2.66.
In the case of CCOC(=O)N(C)C1CCN(Cc2ncc(C(C)C)o2)CC1, the “% Inhibition” value is reported as 2% and the Z score is reported as -0.29.
In the case of Cc1nc(-c2ccc(Cl)c(S(=O)(=O)N3CCC(C(=O)NC4CCCCCC4)CC3)c2)no1, the “% Inhibition” value is reported as -8% and the Z score is reported as 1.02.
For CS(=O)(=O)C1(c2noc([C@@H]3CCc4ccccc4O3)n2)CCCC1, the “% Inhibition” value was 1% and the Z score was -0.09.
O=C(O)C1CC[C@@H](c2ccccc2)N1C(=O)Cc1cccnc1 (stereo partly drawn) was tested, and the “% Inhibition” value was -1% and the Z score was 0.15.
For CCOC(=O)[C@]12CCCN[C@@H]1CCN(C(=O)NCc1ccc(C)cc1)C2, the “% Inhibition” value was 1% and the Z score was -0.19.
With CCc1ccc(S(=O)(=O)N2CCC(N3CCN(Cc4ccccc4)C(=O)C3=O)CC2)cc1 the “% Inhibition” value was -9% and the Z score was 1.66.
O=C(c1cccnc1)N1CCOc2ccc(CN3CCCCCC3)cc2C1 was tested, and the “% Inhibition” value was -7% and the Z score was 0.7.
In the case of O=C(Cn1nc(N2CCOCC2)c2ccccc2c1=O)Nc1ccc(Cl)cc1C(F)(F)F, the “% Inhibition” value is reported as -26% and the Z score is reported as 3.94.
For N#Cc1c2c([nH]c(=O)c1C(=O)O)CCCCCC2, the “% Inhibition” value was 8% and the Z score was -0.96.
With CO[C@H]1C[C@H]2CN(C(=O)c3ccncn3)[C@@H](Cc3ccccc3)C(=O)N2C1 the “% Inhibition” value was -8% and the Z score was 1.25.
For CCO[C@H]1COC[C@@H]1NC(=O)c1cc(Cl)c(C)c(Cl)c1, the “% Inhibition” value was -8% and the Z score was 0.99.
For Cc1ccccc1NC(=O)C1CCN(c2cc(N3CCCC3)ncn2)CC1, the “% Inhibition” value was -3% and the Z score was 0.58.
With c1cnn(C2CN(CC3CCCC3)C2)c1 the “% Inhibition” value was 3% and the Z score was -0.52.
For Cc1cnc(C(C)(C)NC(=O)N[C@@H](C)c2nccs2)s1, the “% Inhibition” value was -6% and the Z score was 0.89.
In the case of COc1cc(C(=O)OCc2nccn2C)ccc1F, the “% Inhibition” value is reported as 31% and the Z score is reported as -3.46.
For COC(=O)[C@@H](NC(=O)c1ccccc1N1CCC(=O)NC1=O)c1ccccc1, the “% Inhibition” value was -14% and the Z score was 1.82.
In the case of Cc1[nH]c2ccc(CNc3cc(C(=O)N4CCCCC4)ccn3)cc2c1C, the “% Inhibition” value is reported as -18% and the Z score is reported as 1.78.
In the case of C[C@@H](CNC(=O)N(C)C1CC[S+]([O-])CC1)c1ccc(F)cc1F (stereo partly drawn), the “% Inhibition” value is reported as 2% and the Z score is reported as -0.24.
In the case of Cn1ccnc1CCNC(=O)COC[C@H]1CCCCO1, the “% Inhibition” value is reported as 1% and the Z score is reported as -0.17.
In the case of O=C(NC1CN(Cc2ccccc2)CCC1CO)c1ccnnc1 (stereo not drawn), the “% Inhibition” value is reported as -4% and the Z score is reported as 0.61.
O=C1CCCc2cc(-c3csc(N4CCCCC4)n3)ccc2N1 was tested, and the “% Inhibition” value was -7% and the Z score was 1.32.
For CC1=CCCC(C)C1CNc1[nH]ncc1C#N (stereo not drawn), the “% Inhibition” value was -7% and the Z score was 0.93.
COC[C@H]1NC(=O)CC[C@H]1C(=O)Nc1ccc(N2CCOCC2)cc1 was tested, and the “% Inhibition” value was -1% and the Z score was 0.07.
For CN1CCC(NCC2(c3ccc(F)cc3Cl)CC2)CC1, the “% Inhibition” value was -3% and the Z score was 0.38.
In the case of CN(CC#N)CCC(=O)Nc1ccccc1, the “% Inhibition” value is reported as 3% and the Z score is reported as -0.53.
In the case of CCOc1ccc(NC(=O)Cc2c(C)nc(C)[nH]c2=O)cc1, the “% Inhibition” value is reported as -6% and the Z score is reported as 1.19.
For Cc1cccc(OCC(=O)N[C@@H]2CN(c3ncccn3)C[C@H]2CO)c1, the “% Inhibition” value was -7% and the Z score was 0.99.
NCCc1c(-c2cccnc2)[nH]c2ccccc12 was tested, and the “% Inhibition” value was -20% and the Z score was 2.36.
With O=C(Nc1ccccc1C(F)(F)F)NC(CO)(CO)C(F)(F)F the “% Inhibition” value was -4% and the Z score was 0.4.
Cc1nc(NCC2CC3CCC2O3)nc(C)c1CC(C)C (stereo not drawn) was tested, and the “% Inhibition” value was -6% and the Z score was 0.81.
With Cc1ccnc(NC(=O)Cc2csc(-c3ccoc3)n2)n1 the “% Inhibition” value was -13% and the Z score was 1.13.
With O=C(c1ccn2c(-c3ccccc3)nnc2c1)N1CCN(c2ccccc2)CC1 the “% Inhibition” value was -13% and the Z score was 1.5.
In the case of O=C(Cn1nc2c(Cl)cccn2c1=O)N1CCC[C@H](C(F)(F)F)C1, the “% Inhibition” value is reported as -8% and the Z score is reported as 1.05.
With Cc1ccc(N2C(=O)C3C4CC5C(OC2C53)C4O)cc1 (stereo not drawn) the “% Inhibition” value was -5% and the Z score was 0.77.
With Cc1cc(Nc2cccc(Cl)c2C)n2nc(-c3ccco3)nc2n1 the “% Inhibition” value was -19% and the Z score was 2.25.
In the case of C[C@](O)(CNC(=O)C(=O)Nc1cccc(C(F)(F)F)c1)c1cc2ccccc2o1, the “% Inhibition” value is reported as -12% and the Z score is reported as 1.56.
For COc1ccccc1CNC(=O)c1nn[nH]c1Nc1ccccc1, the “% Inhibition” value was -14% and the Z score was 1.56.
For Cc1nn(Cc2ncnn2CCCO)c(=O)c2ccccc12, the “% Inhibition” value was 3% and the Z score was -0.43.
O=c1[nH]cnc2ncc(-c3ccccc3)nc12 was tested, and the “% Inhibition” value was -41% and the Z score was 4.8.
For COc1ccc(F)c(CN2CCCO[C@@H](CN3CCOCC3)C2)c1, the “% Inhibition” value was -11% and the Z score was 1.93.
For CC(NC(c1cccc(C(F)(F)F)c1)C1CC1)C(=O)N(C)C (stereo not drawn), the “% Inhibition” value was 8% and the Z score was -1.12.
For O=C(Nc1cc(F)cc(F)c1F)N1C[C@H]2CC[C@@H](C1)[C@H]2O, the “% Inhibition” value was 4% and the Z score was -0.77.
Cc1nc(NCc2cncn2CC(C)C)c(C(N)=O)cc1C(=O)O was tested, and the “% Inhibition” value was -9% and the Z score was 1.24.
In the case of COc1ccccc1CC(=O)NCc1cccnc1-n1ccnc1, the “% Inhibition” value is reported as 3% and the Z score is reported as -0.47.
For Cc1nnc(N2CCN(C(=O)[C@@]34CCC[C@@H]3C4)CC2)c(C(N)=O)c1C, the “% Inhibition” value was -2% and the Z score was 0.39.
With CC(=O)Nc1cc2c3c(c1)C1C=CCC1C(c1ccc(F)cc1)N3CC1CC=CC21 (stereo not drawn) the “% Inhibition” value was 6% and the Z score was -0.9.
With O=C(CNC1(c2nccs2)CCCC1)NCc1ccccn1 the “% Inhibition” value was -15% and the Z score was 1.76.
For CC(C)c1noc(CN2CCN(C(=O)N(C)C)[C@H]3CS(=O)(=O)C[C@H]32)n1, the “% Inhibition” value was -3% and the Z score was 0.42.
With CNC(=O)c1noc2c1CN(C(=O)c1oc3cc(OC)ccc3c1C)CC2 the “% Inhibition” value was -6% and the Z score was 1.21.
In the case of Cc1cccc(N2CCN(C(=O)c3ccc(N4CCOc5ccc(Cl)cc54)s3)CC2)c1C, the “% Inhibition” value is reported as -2% and the Z score is reported as 0.29.
For COCc1ccc(CN(C)C[C@]2(O)CCc3ccccc32)o1, the “% Inhibition” value was -9% and the Z score was 1.16.
For Cc1cnc(NC(=O)[C@@H]2CC(c3ccccc3)=NO2)s1, the “% Inhibition” value was -10% and the Z score was 1.57.
With Cc1nnc(CN(C)C(=O)Nc2ccc(C(C)(C)C(F)(F)F)cc2)s1 the “% Inhibition” value was 15% and the Z score was -1.71.
With CNC(=O)c1ccc(N2CCCO[C@H](C(C)C)C2)nc1 the “% Inhibition” value was -1% and the Z score was 0.2.
In the case of CCC1(CC)CCN(C(=O)C[C@H]2CCOC2)C1, the “% Inhibition” value is reported as -11% and the Z score is reported as 1.26.
C=CCN1C[C@H](C)N(C(=O)C2CCN(C(=O)CC)CC2)C[C@@H]1C was tested, and the “% Inhibition” value was -8% and the Z score was 1.72.
CCc1nc(-c2csc(S(=O)(=O)N3CCC[C@H](C(=O)N4CCc5ccccc54)C3)c2)no1 was tested, and the “% Inhibition” value was -10% and the Z score was 1.14.
With O=C(O)[C@H]1C[C@@H](C(=O)NCc2cccnc2)CN(C/C=C/c2ccccc2)C1 the “% Inhibition” value was -9% and the Z score was 1.73.
In the case of O=S(=O)(N[C@@H](CO)c1ccc(F)cc1)N1CCCC1, the “% Inhibition” value is reported as 10% and the Z score is reported as -1.32.
CCOc1ccc(C(=O)N2CCC[C@@]3(CNC(=O)O3)C2)o1 was tested, and the “% Inhibition” value was 7% and the Z score was -0.92.
O=C([C@H]1CCOC1)N1CCN(Cc2nnc3n2CCCCC3)CC1 was tested, and the “% Inhibition” value was 28% and the Z score was -3.81.
With Cc1c2c(nn1Cc1ccccc1)NC(=O)C[C@H]2/C=C/c1ccco1 the “% Inhibition” value was -7% and the Z score was 1.19.

— ChEMBL document CHEMBL4888484, “Replenishing the malaria drug discovery pipeline: Screening and hit evaluation of the MMV Hit Generation Library 1 (HGL1) against asexual blood stage Plasmodium falciparum ,using a nano luciferase reporter read-out” (2022)
